Source: paper PMC5075699

Legend:
ATF4 = ATF4 western blot, 293T cell lysate controls (ER stress induction); details: 293T cell lysate; cortex ATF4 blot 1
[1] = ref Sidrauski et al., 2013; Halliday et al., 2015; cited from earlier work
hAPP-J20 (J20) mice = experiment: Morris water maze #2, hAPP-J20 mice; details: 2.5 mpk in 50% DMSO/50% PEG; vs vehicle

| Compound | ATF4 Signal (channel 800) (ATF4) | blood-brain-barrier penetration [1] | MWM training latency J20 Trial*ISRIB (linear mixed effects regression model) (hAPP-J20 (J20) mice) | ATF4:GAPDH signal (normalized ATF4) (ATF4) |
| --- | --- | --- | --- | --- |
| C/C=C(/C)C(=O)O[C@H]1C(C)=C2[C@H]([C@@H]1OC(=O)CCCCCCC)[C@@](C)(OC(C)=O)C[C@H](OC(=O)CCC)[C@@]1(O)[C@H]2OC(=O)[C@@]1(C)O [Thapsigargin, thapsigargin] | 1.08E+03 | – | – | – |
| O=C(COc1ccc(Cl)cc1)NC1CCC(NC(=O)COc2ccc(Cl)cc2)CC1 (centres unmarked) [ISRIB] | – | readily crosses the blood–brain-barrier | 4.6 sec/day | – |
| tunicamycin | 1.25E+03 | – | – | 3.91E-01 |
